Measurements as given in PubChem BioAssay AID2546 (National Center for Advancing Translational Sciences (NCATS), 2010).
In all, about 310,000 compounds went through this assay and about 11,000 (3.5%) were called active. The shares of active, inactive and inconclusive entries below differ from those in the screen. The call rests on the fitted dose curve; in most records, active means well fitted inhibition curve with a large enough effect; inconclusive means small, poorly fitted or top-dose-only effect, or effect the other way; inactive means flat fitted curve, though single readings scatter. Potencies of inconclusive entries are left out as doubtful fits.

Experiment: VP16 counterscreen qHTS for inhibitors of ROR gamma transcriptional activity;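 further: Gal4-VP16 expression switched on by copper sulfate through the metallothionein promoter; nearly all actives have a fitted effect of over 50% in size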
Conditions: Drosophila S2 Gal4-VP16 UAS-luciferase, luminescence, 20 h; activity, negative = inhibition: at 53.6 µM (top of the series)
On the % scale 0 is the no-effect control and ±100 the full control effect; potency means the concentration at half of the fitted maximal effect; tags describe the fitted curve by direction and shape.

**Q.** For `CCN1CCN(C(=O)NC(C(=O)NC2C(=O)N3C2SC(C)(C)C3C(=O)O)c2ccccc2)C(=O)C1=O` (stereo unspecified), which “activity, negative = inhibition” value is on record?
**A.** inactive: 1.45%

**Q.** For `O=S(=O)(Nc1ccc(-c2csc(-c3ccccc3)n2)cc1)c1ccc(F)cc1`, which Potency is on record?
**A.** inconclusive [inhibitor, single point]

**Q.** For `CCN(CC)c1ccc(N=Cc2cc(Br)ccc2O)cc1`, which Potency is on record?
**A.** inconclusive [inhibitor, single point]

**Q.** Which Potency does the source give for `COc1cccc(CNC(=O)Cc2csc(Nc3nc(=S)[nH]c4ccccc34)n2)c1` here?
**A.** inconclusive [inhibitor, single point]

**Q.** Which “activity, negative = inhibition” value does the source give for `COc1ccccc1NC(=O)N(Cc1ccco1)Cc1cc2cc(C)cc(C)c2[nH]c1=O` here?
**A.** inactive: 0.949%

**Q.** With `COc1ccccc1Nc1nn2c(=O)c3ccc(C(=O)N4CCC(C)CC4)cc3nc2s1` as the compound, how does the “activity, negative = inhibition” value read?
**A.** inactive: -9.71%

**Q.** For `COc1ccc2c(c1)CCC1C2=NN(/C(C)=C/C(C)=O)C1c1cccc(F)c1` (stereo unspecified), which Potency is on record?
**A.** inconclusive [activator, partial curve, poor fit]

**Q.** Which “activity, negative = inhibition” value does the source give for `C(=N\Nc1nncc2ccccc12)/c1ccccc1` here?
**A.** inactive: -3.29%

**Q.** Which Potency does the source give for `CCN(CC(=O)NC(C)C)Cc1nc2c(Br)cc(Br)cc2c(=O)[nH]1` here?
**A.** active: 7.08 µM

**Q.** With `Cc1c(OC(C)C(=O)NCc2ccccn2)ccc2c3c(c(=O)oc12)CCC3` (stereo unspecified) as the compound, how does the Potency read?
**A.** inconclusive [inhibitor, single point]

**Q.** Which Potency does the source give for `CCCn1c(C2CCCN2c2nc(-c3cccc(Br)c3)cs2)nc2ccccc21` (stereo unspecified) here?
**A.** inconclusive [inhibitor, single point]

**Q.** For `COc1cccc(N=Nc2c(N)[nH][nH]c2=O)c1`, which Potency is on record?
**A.** inconclusive [inhibitor, single point]

**Q.** With `Cc1cc(NC(=O)CCCN2C(=O)/C(=C/c3ccccc3Cl)SC2=S)no1` as the compound, how does the “activity, negative = inhibition” value read?
**A.** inactive: -1.36%

**Q.** Which Potency does the source give for `Cc1ccc(C(=O)ONc2ccc(N=O)cc2)cc1` here?
**A.** active: 12.6 µM

**Q.** Which Potency does the source give for `CCN(C(=O)/C=C/c1ccc2c(c1)OCO2)c1ccccc1` here?
**A.** inconclusive [activator, single point]

**Q.** For `CCOc1ccc(OCC(=O)N2CCOCC2)cc1`, which Potency is on record?
**A.** inconclusive [inhibitor, single point]

**Q.** For `Cc1cccc(-n2nnnc2SCn2nnc3ccccc3c2=O)c1`, which Potency is on record?
**A.** inconclusive [inhibitor, full curve]

**Q.** With `CC(C)N(C(=O)CSc1nc2ccccc2n1Cc1ccccc1)C(C)C` as the compound, how does the Potency read?
**A.** inconclusive [inhibitor, single point]

**Q.** With `CC1CCN(c2ccc(NC(=O)c3cccnc3Cl)cc2)CC1` as the compound, how does the “activity, negative = inhibition” value read?
**A.** inactive: 6.21%

**Q.** For `CNC(=O)COc1coc(CN2CCN(c3ccccc3OC)CC2)cc1=O`, which “activity, negative = inhibition” value is on record?
**A.** inactive: -3.2%

**Q.** Which Potency does the source give for `CC(C)(CNC(=S)NCCc1ccccc1)CNC(=S)NCCc1ccccc1` here?
**A.** active: 8.91 µM

**Q.** Which “activity, negative = inhibition” value does the source give for `CCOc1ccc2c(c1)sc(=NC(=O)C1CC1)n2C` here?
**A.** inactive: -4.11%

**Q.** For `Cc1cc(=O)oc2cc(OCc3ccc(C(=O)N4CCN(c5ccc([N+](=O)[O-])cc5)CC4)cc3)ccc12`, which Potency is on record?
**A.** inconclusive [activator, single point]

**Q.** Which “activity, negative = inhibition” value does the source give for `COC(=O)CC1C(C)(C)C2(O)OC34CC2C(=O)[C@@]1(C)C3CC[C@]1(C)C4=CC(=O)OC1c1ccoc1` (stereo partly specified) here?
**A.** inactive: 6.83%

**Q.** Which Potency does the source give for `C=CCc1ccccc1OCCOc1ccc([N+](=O)[O-])cc1/C=N/NC(N)=O` here?
**A.** inconclusive [inhibitor, single point]

**Q.** Which “activity, negative = inhibition” value does the source give for `CCOC(=O)c1c(N)nn(C(=O)C(C)C)c1-c1ccccc1` here?
**A.** inactive: -19.2%

**Q.** For `COc1ccccc1-c1c(C)oc2c(CN3CCOCC3)c(O)ccc2c1=O`, which “activity, negative = inhibition” value is on record?
**A.** inactive: 1.5%

**Q.** Which Potency does the source give for `Cc1cc(Cl)ccc1OCC(=O)N1C(C)CCCC1C` (stereo unspecified) here?
**A.** inconclusive [inhibitor, single point]

**Q.** For `c1ccc(-c2noc(-c3cccs3)n2)nc1`, which Potency is on record?
**A.** active: 12.6 µM

**Q.** For `O=C(NC(=S)Nc1cccc(NC(=O)c2ccccc2Cl)c1)c1cccs1`, which Potency is on record?
**A.** inconclusive [inhibitor, single point]

**Q.** For `COc1ccc(-n2c(=O)/c(=C\c3cccs3)s/c2=C(/C#N)C(=O)N2CCN(C)CC2)cc1`, which Potency is on record?
**A.** inconclusive [inhibitor, single point]

**Q.** Which Potency does the source give for `COc1ccc2cc(C(=O)/C=C/c3cc(OC)c(O)c(OC)c3)ccc2c1` here?
**A.** inconclusive [inhibitor, single point]

**Q.** Which “activity, negative = inhibition” value does the source give for `Cc1cccc(OCC(=O)N/N=C\c2cc3c(cc2[N+](=O)[O-])OCO3)c1C` here?
**A.** inactive: 0.977%

**Q.** Which Potency does the source give for `CCN(CC(=O)NC(C)(C)C)C(=O)COc1c(Cl)cc(Cl)c2ccc(C)nc12` here?
**A.** active: 3.16 µM

**Q.** For `COc1ccc(N2C(=O)C3C(C2=O)C(C(=O)c2ccc(Cl)cc2)N2CCCC32)cc1` (stereo unspecified), which Potency is on record?
**A.** inconclusive [inhibitor, single point]

**Q.** With `Cc1nc(NNC(=O)c2ccc([N+](=O)[O-])cc2)cc(-c2ccccc2)n1` as the compound, how does the Potency read?
**A.** active: 7.94 µM

**Q.** For `CSc1ccccc1NC(=S)NC1CCCCC1`, which Potency is on record?
**A.** inconclusive [inhibitor, single point]

**Q.** For `COC(/C(=N/O)c1ccc(Cl)cc1)c1ccccc1` (stereo unspecified), which Potency is on record?
**A.** active: 4.47 µM

**Q.** Which “activity, negative = inhibition” value does the source give for `CCOC(=O)c1ccc(N2C(=O)CC(N3CCC(O)(c4ccc(Cl)cc4)CC3)C2=O)cc1` (stereo unspecified) here?
**A.** inactive: -23.2%

**Q.** For `O=C(Nc1ccccc1)Nc1ccc2ocnc2c1`, which “activity, negative = inhibition” value is on record?
**A.** inactive: 6.63%

**Q.** For `Cc1ccc(-c2nnc(N3CCCCC3)c3ccccc23)cc1S(=O)(=O)N1CCN(C)CC1`, which Potency is on record?
**A.** inconclusive [inhibitor, single point]

**Q.** With `S=C(NCc1ccccn1)Nc1ccc(Cl)cc1Cl` as the compound, how does the Potency read?
**A.** active: 12.6 µM

**Q.** For `Cc1c(NC(=O)/C(C#N)=C/c2ccc(-c3ccc(Cl)cc3)o2)c(=O)n(-c2ccccc2)n1C`, which Potency is on record?
**A.** inconclusive [inhibitor, single point]

**Q.** Which Potency does the source give for `O=c1c2cn[nH]c2nc(SCc2ccc3c(c2)OCCO3)n1-c1ccccc1` here?
**A.** inconclusive [inhibitor, single point]

**Q.** For `Cc1ccc(C)c(C(=O)CSc2nc3ccccc3c(=O)[nH]2)c1`, which “activity, negative = inhibition” value is on record?
**A.** inactive: 1.37%

**Q.** Which Potency does the source give for `O=C(NNc1ncnc2sccc12)c1ccc(Cl)cc1` here?
**A.** inconclusive [inhibitor, single point]

**Q.** With `COc1ccc(/C=C/c2nc3ccccc3n2C)cc1` as the compound, how does the Potency read?
**A.** inconclusive [inhibitor, single point]

**Q.** With `N#C/C(=C\c1ccc(-c2ccccc2C(=O)O)o1)c1nc2ccccc2[nH]1` as the compound, how does the “activity, negative = inhibition” value read?
**A.** inactive: -5.03%

**Q.** Which “activity, negative = inhibition” value does the source give for `Cc1cccc(C)c1NC(=O)COC(=O)c1cc(-c2cccnc2)nc2ccccc12` here?
**A.** inactive: -11.3%

**Q.** With `Cc1ccc(Sc2c([N+](=O)[O-])c(=O)n(C)c3ccccc23)cc1` as the compound, how does the Potency read?
**A.** active: 7.08 µM

**Q.** With `CC(C)(C)C1=C(C#N)C(c2ccncc2)C(C#N)=C(N)O1` (stereo unspecified) as the compound, how does the Potency read?
**A.** inconclusive [inhibitor, single point]

**Q.** With `CCC(C)(C)NC(=S)Nc1ccccc1C` as the compound, how does the Potency read?
**A.** active: 11.2 µM

**Q.** For `Cc1cc(OCC(O)CN2CCc3ccccc3C2)ccc1Cl` (stereo unspecified), which Potency is on record?
**A.** inconclusive [inhibitor, single point]

**Q.** Which “activity, negative = inhibition” value does the source give for `CC(C)c1ccc(S(=O)(=O)N2CCN(C(=S)NCc3ccco3)CC2)cc1` here?
**A.** inactive: -13.5%

**Q.** For `O=C(CSc1nnc(SCc2ccc(Cl)cc2)s1)N/N=C/c1c[nH]c2ccccc12`, which Potency is on record?
**A.** active: 8.91 µM

**Q.** Which Potency does the source give for `CCOC(=O)C1=C(O)c2ccccc2C(=O)/C1=C\c1ccc(C)cc1` here?
**A.** inconclusive [inhibitor, single point]

**Q.** Which Potency does the source give for `CSCc1cc(N(C)C)nc(SCc2ccc(Cl)cc2Cl)n1` here?
**A.** inconclusive [inhibitor, single point]

**Q.** With `Cc1ccc(CN2C(=O)N/C(=C\c3ccc(N4CCOCC4)cc3)C2=O)cc1` as the compound, how does the Potency read?
**A.** active: 11.2 µM

**Q.** Which Potency does the source give for `CC(CC1C(C#N)=C(N)SC(N)=C1C#N)c1ccccc1` (stereo unspecified) here?
**A.** inconclusive [inhibitor, single point]

**Q.** For `CC1CCC(NC(=O)CN2C(=O)c3cccnc3Oc3ccc(Cl)cc32)CC1` (stereo unspecified), which “activity, negative = inhibition” value is on record?
**A.** inactive: 3.68%

**Q.** With `O=c1c([N+](=O)[O-])c(N2CCCCCC2)c2ccccc2n1-c1ccccc1` as the compound, how does the “activity, negative = inhibition” value read?
**A.** inactive: -5.88%

**Q.** With `COc1cc(NC(=O)CN2c3cccc4cccc(c34)S2(=O)=O)cc(OC)c1OC` as the compound, how does the Potency read?
**A.** inconclusive [inhibitor, single point]

**Q.** With `Cc1ccc(CC(=O)N2CCN(c3ccc([N+](=O)[O-])cc3)CC2)cc1` as the compound, how does the Potency read?
**A.** active: 35.5 µM

**Q.** Which Potency does the source give for `COc1ccccc1NC(=O)c1nnn(CC(=O)Nc2cccc(SC)c2)c1N` here?
**A.** inconclusive [inhibitor, partial curve]

**Q.** For `COc1ccc(CCN(Cc2ccccn2)C(=S)Nc2ccccc2C)cc1OC`, which Potency is on record?
**A.** inconclusive [inhibitor, partial curve]

**Q.** With `Cc1ccc(S(=O)(=O)N(C)CC(=O)N2CCCC2)cc1` as the compound, how does the “activity, negative = inhibition” value read?
**A.** inactive: 2.68%

**Q.** With `O=c1[nH]n(-c2ccc(Cl)cc2)c(=O)c(Cl)c1Cl` as the compound, how does the Potency read?
**A.** inconclusive [inhibitor, single point]

**Q.** Which Potency does the source give for `O=C(O)c1cccc(NC(=O)c2cn(-c3ccccc3)nc2-c2ccncc2)c1` here?
**A.** inconclusive [activator, single point]

**Q.** With `O=C(Nc1cccc(C(F)(F)F)c1)n1cc(-c2ccccn2)c(N2CCOCC2)n1` as the compound, how does the Potency read?
**A.** inconclusive [inhibitor, single point]

**Q.** For `Cc1c(/C=N/NC(N)=O)c2ccccn2c1C(=O)c1ccc(F)cc1`, which “activity, negative = inhibition” value is on record?
**A.** inactive: -13.3%

**Q.** With `CC(C)c1ccc(CNn2cnnc2)cc1` as the compound, how does the “activity, negative = inhibition” value read?
**A.** inactive: -1.08%

**Q.** For `O=C(N/N=C/c1ccccn1)c1ccc(NC(=O)c2ccc(F)cc2)cc1`, which “activity, negative = inhibition” value is on record?
**A.** inactive: 10.9%

**Q.** Which “activity, negative = inhibition” value does the source give for `COc1ccc(CC(=O)Nc2ccncc2Cl)cc1` here?
**A.** inactive: 3.02%

**Q.** Which Potency does the source give for `Cc1cccc(C(=O)NNC(=O)c2ccccc2O)c1` here?
**A.** inconclusive [inhibitor, single point]

**Q.** For `COc1ccc(C(=O)NC(=S)NNC(=O)CCc2ccccc2)cc1`, which Potency is on record?
**A.** active: 15.8 µM

**Q.** Which Potency does the source give for `C[C@H](NC(=O)c1nc[nH]c1C(=O)NCC(=O)OC(C)(C)C)c1ccccc1` here?
**A.** inconclusive [inhibitor, single point]
